# B1: antibody MAb01-ADC drug (MAb01 coupled to Mc-VC-PAB-MMAE) (other)
# heavy: QIQLVQSGPELVKPGASVQVSCKTSGYSFTDYNVYWVRQSPAKGIEWIGYIDPYNGLTIYEQNFRGKGTLSLDHSTSTAYMELNSLRYEDTAVYFCARDVTTALDFWGQGTSVTVSSEF[… human IgG1 constant region …]
# light: DIQMTQSPASISASIGERVTITCLASQTIDTWLAWFLQKPGRSPNLLIYAATNLADGVPYRFSASGSGNDFSLTISSLNPEDVATYYCQQVYSSPFTFGQGNKLEIRRTVAAPSVFIFPPSDEQLKSGTASVVCLLNNFYPREAKVQWKVDNALQSGNSQESVTEQDSKDSTYSLSSTLTLSKADYEKHKVYACEVTHQGLSSPVTKSFNRGEC
# modifications: Mc-VC-PAB-MMAE coupled after TCEP reduction, DAR 4.15 (sites not given)
# Target: tissue factor on the surface of tumor cells (human, UniProt P13726 33-295)
# Assay: cell-based or functional assay
# UniProt P13726, sequence (P13726 33-295): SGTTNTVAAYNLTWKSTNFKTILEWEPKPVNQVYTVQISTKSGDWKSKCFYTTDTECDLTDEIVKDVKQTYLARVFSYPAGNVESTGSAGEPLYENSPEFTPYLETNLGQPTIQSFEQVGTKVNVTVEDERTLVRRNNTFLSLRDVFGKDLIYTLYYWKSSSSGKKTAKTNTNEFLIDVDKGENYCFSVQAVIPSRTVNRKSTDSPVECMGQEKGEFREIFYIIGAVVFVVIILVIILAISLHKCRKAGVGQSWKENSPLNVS
binder,measurement,value
B1,"IC50 of cell survival (CCK-8), Cervical Cancer Cell Hela",0.0436 nM
same,"IC50 of cell survival (CCK-8), Colon cancer cell SW620",0.463 nM
same,"IC50 of cell survival (CCK-8), In-situ adenocarcinoma cells BXPC",0.0308 nM
same,"IC50 of cell survival (CCK-8), Non-small cell lung cancer A549",0.451 nM
same,"IC50 of cell survival (CCK-8), Ovarian cancer cell SK-OV-3",0.0136 nM

# From US20250170257A1 (NANOLATTIX BIOTECHNOLOGY, published 2025)
